B1: Rad24 C-terminal peptide 598,599EE→AA (domain or fragment, UniProt P32641 461-659)
chain: EDWLNVSLYKYNAVHSFRNITLEFGYYAPLIRKCQSYKKKYILYYLKNLPSGSSGPKQTMDKFSDIMKVENGIDVVDRIGGPIEALSVEDGLAPLMDNDSNNCDHLEDQKKERDRRLRMLIDQYERNVMMANDDLEDAATSFNDDPIVDSDSDNSNNIGNETFGRSDEDESLCEILSQRQPRKAPVISESLSDSDLEIL
B2: Rad24 C-terminal peptide 593,594DD→AA (domain or fragment, UniProt P32641 461-659)
chain: B1 chain with D133A, D134A, A138E, A139E
B3: Sgs1 peptide containing central amino acids 421-792 (plasmid pGP3) (domain or fragment, UniProt P35187 421-792)
chain: YMTTRDEEKEENELLNQSDFDFVVNDDLDPTQDTDYHDNMDVSANIQESSQEGDTRSTITLSQNKNVQVILSSPTAQSVPSNGQNQIGVEHIDLLEDDLEKDAILDDSMSFSFGRQHMPMSHSDLELIDSEKENEDFEEDNNNNGIEYLSDSDLERFDEERENRTQVADIQELDNDLKIITERKLTGDNEHPPPSWSPKIKREKSSVSQKDEEDDFDDDFSLSDIVSKSNLSSKTNGPTYPWSDEVLYRLHEVFKLPGFRPNQLEAVNATLQGKDVFVLMPTGGGKSLCYQLPAVVKSGKTHGTTIVISPLISLMQDQVEHLLNKNIKASMFSSRGTAEQRRQTFNLFINGLLDLVYISPEMISASEQCKRA
B4: Rad24-Δcoil (Rad24 C-terminal peptide with the predicted coil region deleted) (domain or fragment, UniProt P32641)
chain: EDWLNVSLYKYNAVHSFRNITLEFGYYAPLIRKCQSYKKKYILYYLKNLPSGSSGPKQTMDKFSDIMKVENGIDVVDRIGGPIEALSVEDGLAPLMDNDSNNCDHLEDQKKERDFNDDPIVDSDSDNSNNIGNETFGRSDEDESLCEILSQRQPRKAPVISESLSDSDLEIL
B5: Dna2 fragment from the two-hybrid library (fusion junction at aa 122) (domain or fragment, UniProt P38859 122-1522)
chain: PMEEVIWKYSPLQRDMSDKTTSAAEYSDDYEDVQNPSSTPIVPNRLKTVLSFTNIQVPNADVNQLIQENGNEQVRPKPAEISTRESLRNIDDILDDIEGDLTIKPTITKFSDLPSSPIKAPNVEKKAEVNAEEVDKMDSTGDSNDGDDSLIDILTQKYVEKRKSESQITIQGNTNQKSGAQESCGKNDNTKSRGEIEDHENVDNQAKTGNAFYENEEDSNCQRIKKNEKIEYNSSDEFSDDSLIELLNETQTQVEPNTIEQDLDKVEKMVSDDLRIATDSTLSAYALRAKSGAPRDGVVRLVIVSLRSVELPKIGTQKILECIDGKGEQSSVVVRHPWVYLEFEVGDVIHIIEGKNIENKRLLSDDKNPKTQLANDNLLVLNPDVLFSATSVGSSVGCLRRSILQMQFQDPRGEPSLVMTLGNIVHELLQDSIKYKLSHNKISMEIIIQKLDSLLETYSFSIIICNEEIQYVKELVMKEHAENILYFVNKFVSKSNYGCYTSISGTRRTQPISISNVIDIEENIWSPIYGLKGFLDATVEANVENNKKHIVPLEVKTGKSRSVSYEVQGLIYTLLLNDRYEIPIEFFLLYFTRDKNMTKFPSVLHSIKHILMSRNRMSMNFKHQLQEVFGQAQSRFELPPLLRDSSCDSCFIKESCMVLNKLLEDGTPEESGLVEGEFEILTNHLSQNLANYKEFFTKYNDLITKEESSITCVNKELFLLDGSTRESRSGRCLSGLVVSEVVEHEKTEGAYIYCFSRRRNDNNSQSMLSSQIAANDFVIISDEEGHFCLCQGRVQFINPAKIGISVKRKLLNNRLLDKEKGVTTIQSVVESELEQSSLIATQNLVTYRIDKNDIQQSLSLARFNLLSLFLPAVSPGVDIVDERSKLCRKTKRSDGGNEILRSLLVDNRAPKFRDANDDPVIPYKLSKDTTLNLNQKEAIDKVMRAEDYALILGMPGTGKTTVIAEIIKILVSEGKRVLLTSYTHSAVDNILIKLRNTNISIMRLGMKHKVHPDTQKYVPNYASVKSYNDYLSKINSTSVVATTCLGINDILFTLNEKDFDYVILDEASQISMPVALGPLRYGNRFIMVGDHYQLPPLVKNDAARLGGLEESLFKTFCEKHPESVAELTLQYRMCGDIVTLSNFLIYDNKLKCGNNEVFAQSLELPMPEALSRYRNESANSKQWLEDILEPTRKVVFLNYDNCPDIIEQSEKDNITNHGEAELTLQCVEGMLLSGVPCEDIGVMTLYRAQLRLLKKIFNKNVYDGLEILTADQFQGRDKKCIIISMVRRNSQLNGGALLKELRRVNVAMTRAKSKLIIIGSKSTIGSVPEIKSFVNLLEERNWVYTMCKDALYKYKFPDRSNAIDEARKGCGKRTGAKPITSKSKFVSDKPIIKEILQEYES
B6: Mcm5 fragment from the two-hybrid library (fusion junction at aa 108) (domain or fragment, UniProt P29496 108-775)
chain: QSANNNDKDPENTSMDTDSLLLNSLPTFQLILNSNANQIPLRDLDSEHVSKIVRLSGIIISTSVLSSRATYLSIMCRNCRHTTSITINNFNSITGNTVSLPRSCLSTIESESSMANESNIGDESTKKNCGPDPYIIIHESSKFIDQQFLKLQEIPELVPVGEMPRNLTMTCDRYLTNKVIPGTRVTIVGIYSIYNSKNGAGSGRSGGGNGGSGVAIRTPYIKILGIQSDVETSSIWNSVTMFTEEEEEEFLQLSRNPKLYEILTNSIAPSIFGNEDIKKAIVCLLMGGSKKILPDGMRLRGDINVLLLGDPGTAKSQLLKFVEKVSPIAVYTSGKGSSAAGLTASVQRDPMTREFYLEGGAMVLADGGVVCIDEFDKMRDEDRVAIHEAMEQQTISIAKAGITTVLNSRTSVLAAANPIYGRYDDLKSPGDNIDFQTTILSRFDMIFIVKDDHNEERDISIANHVINIHTGNANAMQNQQEENGSEISIEKMKRYITYCRLKCAPRLSPQAAEKLSSNFVTIRKQLLINELESTERSSIPITIRQLEAIIRITESLAKLELSPIAQERHVDEAIRLFQASTMDAASQDPIGGLNQASGTSLSEIRRFEQELKRRLPIGWSTSYQTLRREFVDTHRFSQLALDKALYALEKHETIQLRHQGQNIYRSGV
B7: Ptc1 fragment from the two-hybrid library (fusion junction at aa 185) (domain or fragment, UniProt P35182 185-281)
chain: LIMKSRVNGMLAVTRSLGDKFFDSLVVGSPFTTSVEITSEDKFLILACDGLWDVIDDQDACELIKDITEPNEAAKVLVRYALENGTTDNVTVMVVFL
B8: Rad24 C-terminal peptide rad24-650,652,654SSS→DDD (domain or fragment, UniProt P32641 461-659)
chain: B1 chain with A138E, A139E, S190D, S192D, S194D
B9: Rad24 C-terminal peptide rad24-S637A (domain or fragment, UniProt P32641 461-659)
chain: B1 chain with A138E, A139E, S177A
B10: Rad24 C-terminal peptide rad24-S637D (domain or fragment, UniProt P32641 461-659)
chain: B1 chain with A138E, A139E, S177D
B11: Rad24 C-terminal peptide rad24-650,652,654SSS→AAA (domain or fragment, UniProt P32641 461-659)
chain: B1 chain with A138E, A139E, S190A, S192A, S194A
B12: AD-Rad24-ΔC (Rad24 aa 1-460; plasmid pGP18) (domain or fragment, UniProt P32641 1-460)
chain: MDSTNLNKRPLLQYSLSSLGSQITKWSSSRPTSPVRKARSTENDFLSKQDTSSILPSINDDGGEQWYEKFKPNCLEQVAIHKRKLKDVQEALDAMFLPNAKHRILLLSGPSGCSKSTVIKELSKILVPKYRQNSNGTSFRSTPNEHKVTEFRGDCIVNDLPQMESFSEFLKGARYLVMSNLSLILIEDLPNVFHIDTRRRFQQLILQWLYSSEPLLPPLVICITECEIPENDNNYRKFGIDYTFSAETIMNKEILMHPRLKRIKFNPINSTLLKKHLKFICVQNMKMLKEKNKWNKRQEVIDYIAQETGDIRSAITTLQFWATSSGSLPISTRESTISYFHAIGKVIHGSHSTNNDNEMINNLFENSNNLLSKEDFKLGILENYNTFNKGEFSISDASSIVDCLSECDNMNGLPESNEYGLREVRKTFRNISKQGHNHGTVYFPREWKVRKLQNSFKVQA
B13: AD-Rad24, full-length (plasmid pGP17) (protein, UniProt P32641 1-659)
chain: MDSTNLNKRPLLQYSLSSLGSQITKWSSSRPTSPVRKARSTENDFLSKQDTSSILPSINDDGGEQWYEKFKPNCLEQVAIHKRKLKDVQEALDAMFLPNAKHRILLLSGPSGCSKSTVIKELSKILVPKYRQNSNGTSFRSTPNEHKVTEFRGDCIVNDLPQMESFSEFLKGARYLVMSNLSLILIEDLPNVFHIDTRRRFQQLILQWLYSSEPLLPPLVICITECEIPENDNNYRKFGIDYTFSAETIMNKEILMHPRLKRIKFNPINSTLLKKHLKFICVQNMKMLKEKNKWNKRQEVIDYIAQETGDIRSAITTLQFWATSSGSLPISTRESTISYFHAIGKVIHGSHSTNNDNEMINNLFENSNNLLSKEDFKLGILENYNTFNKGEFSISDASSIVDCLSECDNMNGLPESNEYGLREVRKTFRNISKQGHNHGTVYFPREWKVRKLQNSFKVQAEDWLNVSLYKYNAVHSFRNITLEFGYYAPLIRKCQSYKKKYILYYLKNLPSGSSGPKQTMDKFSDIMKVENGIDVVDRIGGPIEALSVEDGLAPLMDNDSNNCDHLEDQKKERDRRLRMLIDQYERNVMMANDDLEDEETSFNDDPIVDSDSDNSNNIGNETFGRSDEDESLCEILSQRQPRKAPVISESLSDSDLEIL

Protein sequences, listed by entry. Tags and fused reporters are not part of them. Lines headed by an entry give the natural chain unless they say otherwise; changes in a name come on top. Chains listed by the source or under a name are the forms on record and can include a tag or linker. Residues count along the entry.
UniProt P22336: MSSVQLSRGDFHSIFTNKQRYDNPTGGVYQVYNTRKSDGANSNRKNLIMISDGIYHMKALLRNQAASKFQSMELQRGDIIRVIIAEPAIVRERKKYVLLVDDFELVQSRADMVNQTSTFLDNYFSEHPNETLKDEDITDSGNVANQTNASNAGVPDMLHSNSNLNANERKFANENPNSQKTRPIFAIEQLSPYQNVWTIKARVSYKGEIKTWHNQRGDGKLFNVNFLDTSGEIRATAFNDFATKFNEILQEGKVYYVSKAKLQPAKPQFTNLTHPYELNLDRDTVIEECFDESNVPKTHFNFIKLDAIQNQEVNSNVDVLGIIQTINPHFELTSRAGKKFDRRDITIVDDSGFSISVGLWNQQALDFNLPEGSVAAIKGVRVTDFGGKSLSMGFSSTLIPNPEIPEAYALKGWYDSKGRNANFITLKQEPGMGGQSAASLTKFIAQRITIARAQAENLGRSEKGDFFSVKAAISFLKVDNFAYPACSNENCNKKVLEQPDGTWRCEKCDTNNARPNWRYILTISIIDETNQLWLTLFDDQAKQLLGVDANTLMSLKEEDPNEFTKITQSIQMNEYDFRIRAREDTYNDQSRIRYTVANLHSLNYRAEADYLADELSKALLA
BD-Rfa1-FLAB (lexA DNA binding domain fused to Rfa1 truncated at tryptophan 413; plasmid pGP1): residues 1-412 of P22336
UniProt P47110, residues 139-350: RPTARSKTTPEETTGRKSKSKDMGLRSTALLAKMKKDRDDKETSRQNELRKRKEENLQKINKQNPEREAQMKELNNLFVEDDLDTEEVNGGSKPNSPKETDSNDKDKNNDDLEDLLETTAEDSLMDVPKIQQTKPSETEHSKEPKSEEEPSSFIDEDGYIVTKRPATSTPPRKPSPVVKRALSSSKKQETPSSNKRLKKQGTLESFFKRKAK
UniProt P32599, residues 202-642: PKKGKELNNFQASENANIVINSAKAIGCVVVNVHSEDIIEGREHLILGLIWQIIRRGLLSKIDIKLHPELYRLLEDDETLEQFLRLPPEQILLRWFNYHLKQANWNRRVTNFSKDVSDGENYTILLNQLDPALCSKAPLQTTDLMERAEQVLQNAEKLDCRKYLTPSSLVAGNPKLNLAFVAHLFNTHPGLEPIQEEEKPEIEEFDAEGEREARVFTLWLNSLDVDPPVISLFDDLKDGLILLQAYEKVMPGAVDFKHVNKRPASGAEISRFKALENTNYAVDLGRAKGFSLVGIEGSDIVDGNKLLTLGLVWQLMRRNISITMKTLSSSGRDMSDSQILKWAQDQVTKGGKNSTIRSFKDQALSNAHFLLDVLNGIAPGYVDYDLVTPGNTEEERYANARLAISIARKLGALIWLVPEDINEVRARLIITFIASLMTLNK
UniProt P40562, residues 867-993: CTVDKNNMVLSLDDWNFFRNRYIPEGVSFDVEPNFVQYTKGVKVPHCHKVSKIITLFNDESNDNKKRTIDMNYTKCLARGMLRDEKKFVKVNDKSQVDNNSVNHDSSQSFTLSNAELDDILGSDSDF

Positions count from the first letter of the chain named. In names and notes the source's numbering stands. No constants are given. Whether binding was seen depends on the method and setting. Some binding calls cover weakened binding; strength is not graded here. For part of these data: Where a sequence is shown, tags or fusion partners need not be part of it.

One assay has as its target BD-Rfa1, full-length (lexA DNA binding domain fused to Rfa1; plasmids pSJH101 and pPM07) (S. cerevisiae) (UniProt P22336). The assay can be described thus: two-hybrid; directed test by replica plating: EGY48 (6xOlexA-LEU2) with lexA bait, B42 prey and pSH18-34 (8xOlexA-lacZ); growth on SG-HTUL and/or blue colour on SG-HTU+X-gal; also done in EGY48 strains with rfa2-Dx or rfa2-Ax in place of RFA2 (Fig. 2E).
Take B1: the binding entry is “binds”.
Still for that read-out and setting: then B2, with “binds”; and B3, with “binds”.
As for B4, the binding result is given as “binds”.

The next assay concerns the target BD-Rfa1-FLAB (lexA DNA binding domain fused to Rfa1 truncated at tryptophan 413; plasmid pGP1) (S. cerevisiae) (UniProt P22336). The assay is described as follows: two-hybrid; library screen: DupLEX-A system, bait BD-Rfa1-FLAB (pGP1) in EGY48 (6xOlexA-LEU2) with pSH18-34 (8xOlexA-lacZ), S. cerevisiae genomic DNA prey library in pJG4-5; selection by growth on SG-His-Trp-Ura-Leu at 30°C, retest on SD-HTUL and SG-HTUL; prey inserts sequenced.
“Rfa1 fragment from the two-hybrid library (fusion junction at aa 65) (from UniProt P22336 65-621) (domain or fragment)”: the binding result is “binds”.
With “Pol32 fragment from the two-hybrid library (fusion junction at aa 139) (from UniProt P47110 139-350) (domain or fragment)”, the binding result is given as “binds”.
The same measure, in the same setting: as for “Sac6 fragment from the two-hybrid library (fusion junction at aa 202) (from UniProt P32599 202-642) (domain or fragment)”, the entry is “binds”; as for “Mph1 fragment from the two-hybrid library (fusion junction at aa 867) (from UniProt P40562 867-993) (domain or fragment)”, “binds”.
As to B5, the binding entry was “binds”.
On the same count and under the same terms, as for B6, the entry is “binds”; as for B7, “binds”.
Still for that read-out and setting: as for B3, the entry is “binds”.

The target in a further assay is BD-Rfa1, full-length (lexA DNA binding domain fused to Rfa1; plasmids pSJH101 and pPM07) (S. cerevisiae) (UniProt P22336). The assay is described as follows: two-hybrid; liquid beta-galactosidase (ONPG) assay in EGY188 with pSH18-34; pGAL-lexA bait plasmids and B42 prey induced with 2% galactose for 5 hr at 30°C; Miller units normalised to BD-Rfa1 (pPM07) with AD-Rad24-ΔN (pGP2).
In the case of B8, the binding result is recorded as “binds”.
Still for that read-out and setting: as for B9, the entry is “binds”; as for B10, “binds”.
The same measure, in the same setting: then B11, with “binds”; and B12, with “no binding”.
On the same count and under the same terms, as for B13, the entry is “binds”.

(Values after article PMC4342240.)
